# From the supplement of paper PMC8728848
# The list shows a part of the results.
# How the values were obtained:
# Test in all cases: glycan array binding signal (z-score within array); higher = stronger binding
# Details in all cases: glycan notation: IUPAC condensed, linker removed
# [1] = target: Fuc(a1-2)Gal
# Summary of the method: (§1)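 Glycan array data were curated from 3228 arrays in the Consortium for Functional Glycomics database and kept only where the protein sequence was available. Glycan names were converted to IUPAC-condensed notation, and columns mapping to the same glycan were averaged. The binding signal is a within-array Z-score, averaged across arrays of the same protein sequence at different concentrations or buffers and across linkers. Negative Z-scores can be read as non-binding.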
# [2] = target: Fuc(a1-2)Gal(b1-3)GalNAc
# Summary of the method: as §1
# [3] = target: Fuc(a1-2)Gal(b1-3)GalNAc(a1-3)[Fuc(a1-2)]Gal(b1-4)Glc
# Summary of the method: as §1
# [4] = target: Fuc(a1-2)Gal(b1-3)GalNAc(a1-3)[Fuc(a1-2)]Gal(b1-4)GlcNAc
# Summary of the method: as §1
# [5] = target: Fuc(a1-2)Gal(b1-3)GalNAc(b1-3)Gal
# Summary of the method: as §1
# [6] = target: Fuc(a1-2)Gal(b1-3)GalNAc(b1-3)Gal(a1-4)Gal(b1-4)Glc
# Summary of the method: as §1
# [7] = target: Fuc(a1-2)Gal(b1-3)GalNAc(b1-4)[Neu5Ac(a2-3)]Gal(b1-4)Glc
# Summary of the method: as §1
# [8] = target: Fuc(a1-2)Gal(b1-3)GlcNAc
# Summary of the method: as §1
# [9] = target: Fuc(a1-2)Gal(b1-3)GlcNAc(b1-2)Man(a1-3)[Fuc(a1-2)Gal(b1-3)GlcNAc(b1-2)Man(a1-6)]Man(b1-4)GlcNAc(b1-4)GlcNAc
# Summary of the method: as §1
# [10] = target: Fuc(a1-2)Gal(b1-3)GlcNAc(b1-2)Man(a1-3)[Fuc(a1-2)Gal(b1-3)GlcNAc(b1-2)Man(a1-6)]Man(b1-4)GlcNAc(b1-4)[Fuc(a1-6)]GlcNAc
# Summary of the method: as §1
# [11] = target: Fuc(a1-2)Gal(b1-3)GlcNAc(b1-3)Gal(b1-4)Glc
# Summary of the method: as §1
# [12] = target: Fuc(a1-2)Gal(b1-3)GlcNAc(b1-3)GalNAc
# Summary of the method: as §1
# [13] = target: Fuc(a1-2)Gal(b1-3)GlcNAc(b1-3)[Fuc(a1-2)Gal(b1-3)GlcNAc(b1-6)]GalNAc
# Summary of the method: as §1
# [14] = target: Fuc(a1-2)Gal(b1-3)GlcNAc(b1-3)[Gal(b1-4)GlcNAc(b1-6)]Gal(b1-4)Glc
# Summary of the method: as §1
# [15] = target: Fuc(a1-2)Gal(b1-3)GlcNAc(b1-3)[Neu5Ac(a2-6)Gal(b1-4)GlcNAc(b1-6)]Gal(b1-4)Glc
# Summary of the method: as §1
# [16] = target: Fuc(a1-2)Gal(b1-3)GlcNAc6S
# Summary of the method: as §1
# [17] = target: Fuc(a1-2)Gal(b1-3)[Fuc(a1-4)]GlcNAc
# Summary of the method: as §1
# [18] = target: Fuc(a1-2)Gal(b1-3)[Fuc(a1-4)]GlcNAc(b1-2)Man(a1-3)[Fuc(a1-2)Gal(b1-3)[Fuc(a1-4)]GlcNAc(b1-2)Man(a1-3)]Man(b1-4)GlcNAc(b1-4)GlcNAc
# Summary of the method: as §1
# [19] = target: Fuc(a1-2)Gal(b1-3)[Fuc(a1-4)]GlcNAc(b1-2)Man(a1-3)[Fuc(a1-2)Gal(b1-3)[Fuc(a1-4)]GlcNAc(b1-2)Man(a1-6)]Man(b1-4)GlcNAc(b1-4)[Fuc(a1-6)]GlcNAc(b1-4)[Fuc(a1-6)]GlcNAc
# Summary of the method: as §1
# [20] = target: Fuc(a1-2)Gal(b1-3)[Fuc(a1-4)]GlcNAc(b1-3)[Fuc(a1-3)[Gal(b1-4)]GlcNAc(b1-6)]Gal(b1-4)Glc
# Summary of the method: as §1
# [21] = target: Fuc(a1-2)Gal(b1-3)[Fuc(a1-4)]GlcNAc(b1-3)[Gal(b1-4)GlcNAc(b1-6)]Gal(b1-4)Glc
# Summary of the method: as §1
# [22] = target: Fuc(a1-2)Gal(b1-4)Glc
# Summary of the method: as §1
# [23] = target: Fuc(a1-2)Gal(b1-4)Glc6S
# Summary of the method: as §1
# [24] = target: Fuc(a1-2)Gal(b1-4)GlcNAc
# Summary of the method: as §1
# [25] = target: Fuc(a1-2)Gal(b1-4)GlcNAc(b1-2)Man
# Summary of the method: as §1
# [26] = target: Fuc(a1-2)Gal(b1-4)GlcNAc(b1-2)Man(a1-3)[Fuc(a1-2)Gal(b1-4)GlcNAc(b1-2)Man(a1-6)]Man(b1-4)GlcNAc(b1-4)GlcNAc
# Summary of the method: as §1
# [27] = target: Fuc(a1-2)Gal(b1-4)GlcNAc(b1-2)Man(a1-3)[Fuc(a1-2)Gal(b1-4)GlcNAc(b1-2)Man(a1-6)]Man(b1-4)GlcNAc(b1-4)[Fuc(a1-6)]GlcNAc
# Summary of the method: as §1
# [28] = target: Fuc(a1-2)Gal(b1-4)GlcNAc(b1-2)[Fuc(a1-2)Gal(b1-4)GlcNAc(b1-4)]Man(a1-3)[Fuc(a1-2)Gal(b1-4)GlcNAc(b1-2)Man(a1-6)]Man(b1-4)GlcNAc(b1-4)GlcNAc
# Summary of the method: as §1
# [29] = target: Fuc(a1-2)Gal(b1-4)GlcNAc(b1-3)Gal(b1-4)GlcNAc
# Summary of the method: as §1
# [30] = target: Fuc(a1-2)Gal(b1-4)GlcNAc(b1-3)Gal(b1-4)GlcNAc(b1-2)Man(a1-3)[Fuc(a1-2)Gal(b1-4)GlcNAc(b1-3)Gal(b1-4)GlcNAc(b1-2)Man(a1-6)]Man(b1-4)GlcNAc(b1-4)GlcNAc
# Summary of the method: as §1
# [31] = target: Fuc(a1-2)Gal(b1-4)GlcNAc(b1-3)Gal(b1-4)GlcNAc(b1-3)Gal(b1-4)GlcNAc
# Summary of the method: as §1
# [32] = target: Fuc(a1-2)Gal(b1-4)GlcNAc(b1-3)GalNAc
# Summary of the method: as §1
# [33] = target: Fuc(a1-2)Gal(b1-4)GlcNAc(b1-3)[Fuc(a1-2)Gal(b1-4)GlcNAc(b1-6)]GalNAc
# Summary of the method: as §1
# [34] = target: Fuc(a1-2)Gal(b1-4)GlcNAc(b1-3)[Fuc(a1-3)[Gal(b1-4)]GlcNAc(b1-6)]Gal(b1-4)Glc
# Summary of the method: as §1
# [35] = target: Fuc(a1-2)Gal(b1-4)GlcNAc(b1-6)GalNAc
# Summary of the method: as §1
# [36] = target: Fuc(a1-2)Gal(b1-4)GlcNAc6S
# Summary of the method: as §1
# [37] = target: Fuc(a1-2)Gal(b1-4)[Fuc(a1-3)]GlcNAc
# Summary of the method: as §1
# [38] = target: Fuc(a1-2)Gal(b1-4)[Fuc(a1-3)]GlcNAc(b1-2)Man(a1-3)[Fuc(a1-2)Gal(b1-4)[Fuc(a1-3)]GlcNAc(b1-2)Man(a1-6)]Man(b1-4)GlcNAc(b1-4)[Fuc(a1-6)]GlcNAc
# Summary of the method: as §1
# [39] = target: Fuc(a1-2)Gal(b1-4)[Fuc(a1-3)]GlcNAc(b1-2)[Fuc(a1-2)Gal(b1-4)[Fuc(a1-3)]GlcNAc(b1-4)]Man(a1-3)[Fuc(a1-2)Gal(b1-4)[Fuc(a1-3)]GlcNAc(b1-2)Man(a1-6)]Man(b1-4)GlcNAc(b1-4)GlcNAc
# Summary of the method: as §1
# [40] = target: Fuc(a1-2)Gal(b1-4)[Fuc(a1-3)]GlcNAc(b1-3)Gal(b1-4)[Fuc(a1-3)]GlcNAc
# Summary of the method: as §1
# [41] = target: Fuc(a1-2)Gal(b1-4)[Fuc(a1-3)]GlcNAc(b1-3)Gal(b1-4)[Fuc(a1-3)]GlcNAc(b1-3)Gal(b1-4)[Fuc(a1-3)]GlcNAc
# Summary of the method: as §1
# [42] = target: Fuc(a1-2)Gal(b1-4)[Fuc(a1-3)]GlcNAc(b1-3)GalNAc
# Summary of the method: as §1
# [43] = target: Fuc(a1-2)Gal(b1-4)[Fuc(a1-3)]GlcNAc(b1-3)[Neu5Ac(a2-6)Gal(b1-4)GlcNAc(b1-6)]Gal(b1-4)Glc
# Summary of the method: as §1
# [44] = target: Fuc(a1-2)Gal3S(b1-4)GlcNAc
# Summary of the method: as §1
# [45] = target: Fuc(a1-2)Gal6S(b1-3)GlcNAc
# Summary of the method: as §1
binder,measurement,setting,value
Si Bti9 1b-HA (Solanum lycopersicum) (protein) MFESRPRSVLSLGVFVILVYLSSVPLPVNSQCNRGCDLALASFYVWRGSNLTLISEMFSTSIADIVSYNNRDNIPNQDSVIAGTRINIPFRCDCLNDGEVLGHAFPYRVKSGDTYDLVARNYSDLTTAQWMMKFNSYPENNIPNTVNLSVVVNCSCGNSDVSKDFGLFVTYPVRAEDNLTSVASAANVSEDIIRRYNPAAVSILDIGQGIIYIPGRDRNGNFPPLPTSTDGLSGGAKAPLFFNPAFLYKVVELKLAGRSRTSGYPYDVPDYAGYPYDVPDYALEVLFQ,glycan array binding signal (z-score),[1],-0.051
same,glycan array binding signal (z-score),[2],-0.072
same,glycan array binding signal (z-score),[3],0.034
same,glycan array binding signal (z-score),[4],0.182
same,glycan array binding signal (z-score),[5],0.238
same,glycan array binding signal (z-score),[6],0.005
same,glycan array binding signal (z-score),[7],-0.408
same,glycan array binding signal (z-score),[8],-0.5
same,glycan array binding signal (z-score),[9],0.652
same,glycan array binding signal (z-score),[10],0.795
same,glycan array binding signal (z-score),[11],-0.131
same,glycan array binding signal (z-score),[12],-0.385
same,glycan array binding signal (z-score),[13],-0.159
same,glycan array binding signal (z-score),[14],-0.108
same,glycan array binding signal (z-score),[15],-0.237
same,glycan array binding signal (z-score),[16],0.453
same,glycan array binding signal (z-score),[17],-0.473
same,glycan array binding signal (z-score),[18],0.926
same,glycan array binding signal (z-score),[19],-0.022
same,glycan array binding signal (z-score),[20],-0.473
same,glycan array binding signal (z-score),[21],-0.326
same,glycan array binding signal (z-score),[22],-0.268
same,glycan array binding signal (z-score),[23],-0.246
same,glycan array binding signal (z-score),[24],-0.204
same,glycan array binding signal (z-score),[25],0.248
same,glycan array binding signal (z-score),[26],0.084
same,glycan array binding signal (z-score),[27],1.61
same,glycan array binding signal (z-score),[28],0.108
same,glycan array binding signal (z-score),[29],-0.424
same,glycan array binding signal (z-score),[30],-0.121
same,glycan array binding signal (z-score),[31],-0.455
same,glycan array binding signal (z-score),[32],-0.344
same,glycan array binding signal (z-score),[33],-0.037
same,glycan array binding signal (z-score),[34],-0.494
same,glycan array binding signal (z-score),[35],0.3
same,glycan array binding signal (z-score),[36],-0.271
same,glycan array binding signal (z-score),[37],-0.424
same,glycan array binding signal (z-score),[38],0.054
same,glycan array binding signal (z-score),[39],-0.068
same,glycan array binding signal (z-score),[40],-0.28
same,glycan array binding signal (z-score),[41],-0.112
same,glycan array binding signal (z-score),[42],0.141
same,glycan array binding signal (z-score),[43],-0.201
same,glycan array binding signal (z-score),[44],-0.035
same,glycan array binding signal (z-score),[45],-0.239
